Measured values reported in article PMC11995724, “Antibiotic target discovery by integrated phenotypic and activity-based profiling of electrophilic fragments” (Cell chemical biology, 2025).
Out of some 3,200 compounds screened, about 110 (3.4%) showed an effect of 50% or more. Some of the results follow.

tested on: T1, V. cholerae SAD30; design: species or system S. aureus MSSA476 (TSB) or V. cholerae SAD30 (LB); 384-well bacterial growth screen at 25 uM, OD600 relative to DMSO control; conditions: relative growth, OD600, LB; 25 µM; inhibitor
T1 construct: SAD30

Structure (SMILES)	% of control remaining [%]
N#Cc1ccccc1N1C(=O)C=CC1=O [10-B13, 2-(2,5-dioxo-2,5-dihydro-1H-pyrrol-1-yl)benzonitrile]	22.7547
Cc1ccccc1-n1c(C)cc(C(=O)CCl)c1C [10-H20, 2-chloro-1-[2,5-dimethyl-1-(2-methylphenyl)-1H-pyrrol-3-yl]ethan-1-one]	100.526
Cc1ccccc1NC(=O)C(C#N)=Cc1cc(C)n(CC(C)C)c1C [8-D19, 2-cyano-3-[2,5-dimethyl-1-(2-methylpropyl)-1H-pyrrol-3-yl]-N-(2-methylphenyl)prop-2-enamide]	70.9041
CCCCNC(=O)C(C#N)=Cc1ccsc1 [9-B13, N-butyl-2-cyano-3-(thiophen-3-yl)prop-2-enamide]	75.9347
C#CCOc1ccccc1C=C(C#N)C(=O)Nc1ccccc1F [9-C10, 2-cyano-N-(2-fluorophenyl)-3-[2-(prop-2-yn-1-yloxy)phenyl]prop-2-enamide]	83.1407
C=CC(=O)N1CCC(C(=O)NCC(C)c2ncc(C)s2)CC1 (stereo not drawn) [3-P10, N-[2-(5-methyl-1,3-thiazol-2-yl)propyl]-1-(prop-2-enoyl)piperidine-4-carboxamide]	110.439
CC(C)NC(=O)C(C#N)=Cc1ccc(-c2ccc([N+](=O)[O-])cc2)s1 [9-B16, 2-cyano-3-[5-(4-nitrophenyl)thiophen-2-yl]-N-(propan-2-yl)prop-2-enamide]	77.7022
CCCCNC(=O)C(C#N)=Cc1ccc(Cl)cc1 [9-H13, N-butyl-3-(4-chlorophenyl)-2-cyanoprop-2-enamide]	78.9259
N#CC(=Cc1ccc(N2CCCCC2)cc1)C(=O)NC1CC1 [8-O04, 2-cyano-N-cyclopropyl-3-[4-(piperidin-1-yl)phenyl]prop-2-enamide]	71.8559
O=C(CCl)Cc1c(Cl)cccc1Cl [10-K15, 1-chloro-3-(2,6-dichlorophenyl)propan-2-one]	45.6653
COc1ccc(C=C(C#N)C(=O)Nc2ccccc2C)cc1 [8-P07, 2-cyano-3-(4-methoxyphenyl)-N-(2-methylphenyl)prop-2-enamide]	78.3821
CC(Cl)C(=O)NCC(=O)Nc1ccc2c[nH]nc2c1 (stereo not drawn) [7-N11, 2-chloro-N-{[(2H-indazol-6-yl)carbamoyl]methyl}propanamide]	79.9604
COc1cccc(NC(=O)C(C#N)=Cc2ccc(O)cc2)c1 [8-O17, 2-cyano-3-(4-hydroxyphenyl)-N-(3-methoxyphenyl)prop-2-enamide]	71.584
Cc1nc(CNC(=O)N2CCSSCC2)cs1 [10-O18, N-[(2-methyl-1,3-thiazol-4-yl)methyl]-1,2,5-dithiazepane-5-carboxamide]	98.1882
Cc1ccc(Sc2ccc(NC(=O)CCl)cc2)c(C)c1 [4-I03, 2-chloro-N-{4-[(2,4-dimethylphenyl)sulfanyl]phenyl}acetamide]	72.1156
CC1CC(NC(=O)C(C)Cl)=NO1 (stereo not drawn) [5-J21, 2-chloro-N-(5-methyl-4,5-dihydro-1,2-oxazol-3-yl)propanamide]	102.89
C=CC(=O)NCCc1nnc(-c2ccccc2)o1 [3-J09, N-[2-(5-phenyl-1,3,4-oxadiazol-2-yl)ethyl]prop-2-enamide]	91.3839
CCn1c2ccccc2c2cc(NC(=O)CCl)ccc21 [4-D06, 2-chloro-N-(9-ethyl-9H-carbazol-3-yl)acetamide]	102.308
O=C(CCl)Cc1cccc(Cl)c1 [10-E17, 1-chloro-3-(3-chlorophenyl)propan-2-one]	7.481
CC(Cl)C(=O)N(C)Cc1ccnn1C (stereo not drawn) [5-L17, 2-chloro-N-methyl-N-[(1-methyl-1H-pyrazol-5-yl)methyl]propanamide]	96.3329
CC(Cl)C(=O)NCc1csc(-c2ccco2)n1 (stereo not drawn) [7-K05, 2-chloro-N-{[2-(furan-2-yl)-1,3-thiazol-4-yl]methyl}propanamide]	81.8107
N#CC(=Cc1cc(F)ccc1F)C(=O)Nc1ccc(F)cc1 [8-E10, 2-cyano-3-(2,5-difluorophenyl)-N-(4-fluorophenyl)prop-2-enamide]	73.6234
C=CC(=O)N1CCCCC1c1nc2ccccc2n1C (stereo not drawn) [3-F04, 1-[2-(1-methyl-1H-1,3-benzodiazol-2-yl)piperidin-1-yl]prop-2-en-1-one]	96.3242
CC(Cl)C(=O)Nc1ccccc1F (stereo not drawn) [5-L10, 2-chloro-N-(2-fluorophenyl)propanamide]	100.368
Cc1nn(CC(C)C)c(Cl)c1C1CCCN1C(=O)CCl (stereo not drawn) [5-L13, 2-chloro-1-{2-[5-chloro-3-methyl-1-(2-methylpropyl)-1H-pyrazol-4-yl]pyrrolidin-1-yl}ethan-1-one]	95.9966
N#CCCN(C(=O)CCl)c1ccccc1F [5-P07, 2-chloro-N-(2-cyanoethyl)-N-(2-fluorophenyl)acetamide]	110.791
CCn1ncc(C(=O)CCl)n1 [10-E13, 2-chloro-1-(2-ethyl-2H-1,2,3-triazol-4-yl)ethan-1-one]	0
CCn1nc(C)c(CN(C)C(=O)CCl)c1C [5-A10, 2-chloro-N-[(1-ethyl-3,5-dimethyl-1H-pyrazol-4-yl)methyl]-N-methylacetamide]	104.907
Cc1cc(C=C(C#N)C(=O)N2CC[C@H](O)C2)c(C)n1CC1CCCO1 (stereo partly drawn) [9-P04, 3-{2,5-dimethyl-1-[(oxolan-2-yl)methyl]-1H-pyrrol-3-yl}-2-[(3S)-3-hydroxypyrrolidine-1-carbonyl]prop-2-enenitrile]	94.0177
O=C(CCl)NC1C=C(c2ccc(Cl)cc2)CCC1 (stereo not drawn) [7-P08, 2-chloro-N-[3-(4-chlorophenyl)cyclohex-2-en-1-yl]acetamide]	75.8632
